# Laboratory results from the supplement of paper PMC11417369.
# ± gives the standard deviation of the averaged measurements. The list shows a part of the results.
# Tested on: PfAP2-LT AP2 domain (GST-tagged)
# Test: gcPBM binding intensity (ln(normalized median fluorescence intensity)); higher = stronger DNA binding
# Method in brief: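 Binding intensity is the highest Masliner-normalised natural-log median intensity over replicate spots in either probe orientation. To obtain it, GST-tagged P. falciparum DNA-binding domains made in E. coli were incubated for 1 h on an Agilent 4 × 180k array of primer-extended double-stranded 36-bp intergenic genomic probes plus negative controls. Detection used Alexa488 anti-GST antibody with scanning at 488 nm.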
row,Sequence,gcPBM binding intensity (ln)
1,CTATTATATCAGTAGACACACATATAACATTTATAT [CACACA_site141],8.95 ± 0.39
2,AATGTGCTCGCTATTACACACTCATTGGGATAAAAT [CACACA_site8627],8.92 ± 0.34
3,AGTAACAATTATTATGCATGTACAAATAATCATTTT [TGCATGCA_site867],8.85 ± 0.35
4,ATCTTATATTATCACACACACACGCACAAAACAGAA [CACACA_site1463],9.91 ± 0.26
5,ATATTATATAGAAACACACATACACATGTAAATATA [CACACA_site2037],9.19 ± 0.39
6,TTTATTAAACTTGACACACACACACCCACATATATA [CACACA_site760],9.8 ± 0.28
7,ATGGATTTTACCATAGCACACATATATGAATATTTT [CACACA_site8535],8.85 ± 0.33
8,TAATTATTTCGTATATTTGAATGGTACATGCTTATA [CACACA_negctrl_site1178],8.59 ± 0.38
9,ATATAGAAAATGCATACACACTTTATATATATATTT [CACACA_site4658],8.91 ± 0.4
10,CCTTTATACATTTTCTGTACTGATATATATTAAAAA [XGTACX_site8467],8.6 ± 0.4
11,TTGTGTTCTTATTTTTACACCGAAAAATATTAAAAG [CACACA_negctrl_site535],8.43 ± 0.36
12,GTATGAAAAAAAATATGTACACATATATATTTGGTA [XGTACX_site6309],8.89 ± 0.38
13,ATATATATATATACAACACACATGTAATATATAAAT [CACACA_site3294],9.28 ± 0.16
14,TACTGATCCACATTTATACACACCTCGGTTTGTAGA [CACACA_site417],8.91 ± 0.35
15,TATAGATTCTTTTAATGTACATGTCTTTTCATTTCC [XGTACX_site8348],8.79 ± 0.49
16,ATATAAAAAAAAAAAAAAAAATATATATATATATAT [GTGCAC_negctrl_site251],9.38 ± 0.28
17,GATATACTGTCAATTCTACACACCATAGGGGGAGCA [CACACA_site8562],9.56 ± 0.19
18,TTGGTTTGAAAGAAAGAAATTATTAAAAAGGAAATA [CACACA_negctrl_site26],8.19 ± 0.57
19,ATCATAACACCTCCACACAAATAAATATAACATATA [XGTACX_negctrl_site269],9.09 ± 0.34
20,ATGAGTGCACAAATATATATATATATATATATATAT [CACACA_negctrl_site404],10.2 ± 0.26
21,CTTTTTATTAAATATGCATGTGTATCAACAGTGAAT [TGCATGCA_site447],8.65 ± 0.32
22,GTTATACGCATATATACACACATATGTAAATATATA [CACACA_site3280],9.09 ± 0.3
23,TAAAAAAAATAGCATACACACATATATACCTATATA [CACACA_site4535],8.94 ± 0.38
24,AAACAATTTATGTGTAGTACATGTTGGAGATAATTT [XGTACX_site6000],8.88 ± 0.36
25,GAAAATATATTATTTACACACATGTTCAAATTAAAA [CACACA_site3761],8.71 ± 0.41
26,TATTAAATATAAGTCACACATAATTTTTCGTCCTTT [CACACA_site5065],8.7 ± 0.52
27,CATACACCCGGACACACACACACACCCATATATAAT [CACACA_site4494],10 ± 0.35
28,TTGTTTTTTTCTTTTTGTACATATACAACATACATA [XGTACX_site8996],8.81 ± 0.54

row,Sequence,gcPBM binding intensity (ln)
1,TAATAAAAGATATATACACACAAATAAATAAATAAA [CACACA_site7818],8.97 ± 0.53
2,ATAATATAAACATATTGTACACATATATTGCTATTT [XGTACX_site2799],8.95 ± 0.42
3,AAAAAAAAATATATATATATATATATAAATAAATTT [CACACA_negctrl_site519],9.09 ± 0.38
4,AAATATAAAAAAAATATATAATTTTTACATCGAATT [CACACA_negctrl_site544],8.38 ± 0.49
5,AACGAGCAAGACGGGGTGCACACAAACTAATATGCC [GTGCAC_site9436],9.55 ± 0.39
6,TTATTATTGTTATGTTGTACTTTTACAAACTTTTTG [XGTACX_site8797],8.73 ± 0.44
7,TTCTATGAATTCATAGTGCAAATGAGTTATTTTTTC [GTGCAC_site9709],8.49 ± 0.42
8,AAGAAAATAGGGTTCATAGGATTATACTTTTGGAAT [TGCATGCA_negctrl_site80],8.59 ± 0.54
9,TATTTTATCTAAGGATGTACATTATTAAGAAAATGT [XGTACX_site6123],8.32 ± 0.38
10,ATATATTTATTAAGGTGTACAAAAATTATGTTGCAT [XGTACX_site7546],8.65 ± 0.4
11,CTTTTTTAAATTATTGCACACAAAAATGAAAGGAAA [CACACA_site8412],8.69 ± 0.41
12,ACATCAAGCAGACACACACACACACCCACCCACCGA [CACACA_site371],10.4 ± 0.11
13,TAGAAATATAATTAATGTACATATGATATTATATAT [XGTACX_site923],8.62 ± 0.42
14,ATTTATTTATATAGAAGTACATATTTATTTATATAT [XGTACX_site6283],8.52 ± 0.42
15,CGATTACTAATTTTTAGTACATATAATCAATATGTA [XGTACX_site7857],8.4 ± 0.42
16,ATCTATTTCTATTGTTGTACTTATTTTTCATTGTTT [XGTACX_site6942],9.3 ± 0.44
17,ATGTAGCCTTACGCTTGTACGAATATCTTAATTTTT [XGTACX_site4331],8.78 ± 0.4
18,AAAAAAAATAGACACACACACATACACATAAATATA [CACACA_site7742],9.82 ± 0.38
19,AGGGTTACAAGAGGAACACACAAAAAAATAAATAAA [CACACA_site1436],9.02 ± 0.71
20,TTTGTAATAAACTACTTTTTTTTTTTTTTTTTTTTT [CACACA_negctrl_site571],8.495 ± 0.078
21,ATTAAATCTATATATACACACATGTTTGGTATATTC [CACACA_site2657],9.22 ± 0.33
22,TTTATATTACAATAATATATTAAAAAATAAAATATA [TGCATGCA_negctrl_site18],8.16 ± 0.54
23,ATTTTTTTATTTGATTGTACAATTTTCTTTCAAAAT [XGTACX_site2902],8.76 ± 0.36
24,TATACAATATAAAATACACACGCACCCAAAAAAAAA [CACACA_site9174],9.44 ± 0.27
25,ATATAATGTGTAGGCCGTATTTACGTTTGGCAATCA [CACACA_negctrl_site1130],8.99 ± 0.56
26,TATAATATAATATATATATATATATATATATAAGAA [CACACA_negctrl_site78],8.96 ± 0.36
27,TTCATATAAATACATGCACACAAAAATATCAATACA [CACACA_site8753],9.12 ± 0.33
